Hit rate of the full screen: of about 360,000 compounds, about 25,000 (6.9%) were called active. The shares of active, inactive and inconclusive entries below differ from those in the screen. Calls come from the whole dose curve; as a rule, active = well fitted inhibition curve with a large enough effect; inconclusive = small, poorly fitted or top-dose-only effect; inactive = flat fitted curve, though single readings scatter. Potencies of inconclusive entries are doubtful fits and often do not repeat.
Target: Luciferin 4-monooxygenase (Photinus pyralis) (UniProt P08659)
Assay: qHTS profiling assay for firefly luciferase inhibitor/activator using purifed enzyme and Km concentrations of substrates (counterscreen for miR-21 project); note: nearly all actives have a fitted effect of over 55% in size;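 for activity change, negative = inhibition: plate controls were vehicle for no effect and reference inhibitor for full effect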
Conditions: purified FLuc, luminescence inhibition; activity change, negative = inhibition: at 57.5 µM (top of the series)
Procedure, shortened: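 Purified P. pyralis luciferase (10nM final) with 10uM D-luciferin and 10uM ATP (Km levels) in 50mM Tris acetate pH 7.5, 10mM Mg acetate, 0.01% Tween-20, 0.05% BSA; qHTS 6-point titration, ~60 µM downward; luminescence read.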
Potency is the fitted concentration of half-maximal effect; tags give direction and shape of the fitted curve.

Sequence of UniProt P08659 (P08659 whole entry, looked up): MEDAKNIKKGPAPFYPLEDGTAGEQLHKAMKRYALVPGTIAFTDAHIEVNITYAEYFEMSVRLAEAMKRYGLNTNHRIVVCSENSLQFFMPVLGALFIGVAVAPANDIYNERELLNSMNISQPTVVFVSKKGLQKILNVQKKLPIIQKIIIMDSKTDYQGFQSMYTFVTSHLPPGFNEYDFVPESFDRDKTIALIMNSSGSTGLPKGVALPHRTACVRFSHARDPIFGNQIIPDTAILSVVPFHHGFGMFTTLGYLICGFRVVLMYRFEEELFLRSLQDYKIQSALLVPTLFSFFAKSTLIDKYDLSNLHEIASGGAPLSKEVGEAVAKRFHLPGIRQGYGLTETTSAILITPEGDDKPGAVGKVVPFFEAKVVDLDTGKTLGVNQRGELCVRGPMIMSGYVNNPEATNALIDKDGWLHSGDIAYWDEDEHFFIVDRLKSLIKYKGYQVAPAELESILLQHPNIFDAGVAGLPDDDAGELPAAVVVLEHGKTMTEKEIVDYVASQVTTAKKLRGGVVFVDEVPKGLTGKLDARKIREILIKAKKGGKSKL

Q: How did the Potency turn out when `O=C(CCCSc1nc2ccccc2c(=O)[nH]1)c1ccc(F)cc1` was run?
A: The Potency was inconclusive: 37.9 µM [inhibitor, partial curve, poor fit].

Q: Which “activity change, negative = inhibition” value does the source give for `COc1cccc(NC(=O)CN(C)C(=O)CCCc2c[nH]c3ccccc23)c1` here?
A: Its value is inactive: -2.81%.

Q: With `COc1ccc(C(=O)Nc2ccccc2C(=O)NCCCn2ccnc2)cc1` as the molecule, how does the Potency read?
A: Its Potency is inconclusive: 19 µM [inhibitor, partial curve].

Q: With `Cc1ccc(CN(C)C(=O)c2ccccc2Sc2ccccc2C#N)cc1` as the molecule, how does the “activity change, negative = inhibition” value read?
A: The value was inactive: -0.443%.

Q: How did the “activity change, negative = inhibition” value turn out when `CCOCCCNC(=O)C1CCN(c2nc3ccc(C)cc3[nH]2)CC1` was run?
A: The value was inactive: 0.328%.

Q: Which Potency does the source give for `Cc1ccc(NC(=O)N2CCc3ccccc32)cc1` here?
A: Its Potency is active: 0.536 µM.

Q: `O=C(NNc1nc2c(F)cccc2s1)c1cc(=O)c2ccccc2o1` was tested. Which Potency did it give?
A: Its Potency is active: 5.36 µM.

Q: Which Potency does the source give for `Cc1cccc(Nc2c(-c3ccc(N4CCOCC4)cc3)nc3ncccn23)c1` here?
A: The Potency was inconclusive: 23.9 µM [inhibitor, partial curve].

Q: With `COc1ccc(NC(=O)CCc2c(C)nn(-c3ccc(N4CCCC4)nn3)c2C)cc1Cl` as the molecule, how does the Potency read?
A: The Potency was active: 21.3 µM.

Q: `Cc1cc(C(=O)N2CCN(c3cc(Cl)ccc3C)CC2)on1` was tested. Which “activity change, negative = inhibition” value did it give?
A: Its value is inactive: 3.2%.

Q: With `CCc1ccc(C(=O)c2oc3nc(C)cc(C)c3c2N)cc1` as the molecule, how does the Potency read?
A: Its Potency is active: 15.1 µM.

Q: With `O=C(CSc1nc2c([nH]c3ccccc32)c(=O)n1-c1ccccc1)Nc1cccc(C(F)(F)F)c1` as the molecule, how does the “activity change, negative = inhibition” value read?
A: Its value is inactive: 3.67%.

Q: With `CN(C(=O)c1ccccc1C(=O)OCC(=O)c1ccc(F)c(F)c1)C1CCCCC1` as the molecule, how does the “activity change, negative = inhibition” value read?
A: Its value is inactive: 1.73%.

Q: For `Cc1nc(C)c(C(=O)Nc2nc3c(C)cccc3s2)o1`, which Potency is on record?
A: The Potency was inconclusive: 21.3 µM [inhibitor, partial curve].

Q: `COc1cccc2cc3c(=O)n(-c4ccccc4)nc-3oc12` was tested. Which Potency did it give?
A: The Potency was inconclusive: 1.51 µM [inhibitor, full curve].

Q: How did the Potency turn out when `COc1cccc2c1OC1(C)CC2NC(=O)N1c1cccc(C(=O)Nc2ccc3c(c2)OCCO3)c1` (configuration not stated) was run?
A: The Potency was inconclusive: 33.8 µM [inhibitor, single point].

Q: Which Potency does the source give for `O=C(NC1CCCCC1)c1ccc(CSc2nc3ccncc3n2Cc2cccc(F)c2)cc1` here?
A: Its Potency is inconclusive: 37.9 µM [inhibitor, partial curve, poor fit].

Q: For `Nc1ccc(O)c2c1C(=O)c1ccccc1C2=O`, which Potency is on record?
A: The Potency was inconclusive: 26.9 µM [inhibitor, partial curve, poor fit].

Q: For `Cc1ccc(N(C)C(=O)Cn2ncc3c([nH]c4ccccc43)c2=O)cc1C`, which “activity change, negative = inhibition” value is on record?
A: The value was inactive: -17.6%.

Q: How did the Potency turn out when `COC(=O)c1ccc(N/N=C/c2cc([N+](=O)[O-])cc(OC)c2O)cc1` was run?
A: Its Potency is inconclusive: 8.49 µM [inhibitor, partial curve].

Q: With `O=C(/C=C/c1ccco1)Nc1ccc(-c2nc3ccccc3[nH]2)cc1` as the molecule, how does the “activity change, negative = inhibition” value read?
A: Its value is inactive: 0.328%.

Q: Which Potency does the source give for `CCn1c2ccccc2c2cc(NC(=O)CSc3nccc(=O)[nH]3)ccc21` here?
A: Its Potency is inconclusive: 37.9 µM [inhibitor, single point].

Q: For `CCOC(=O)N1CCc2c(sc(NCc3cc(OC)ccc3OC)c2C(=O)Nc2cc(OC)ccc2OC)C1`, which Potency is on record?
A: Its Potency is inconclusive: 26.9 µM [inhibitor, partial curve, poor fit].

Q: For `Oc1ccc(Br)cc1C1Nc2ccccc2S1` (configuration not stated), which Potency is on record?
A: Its Potency is inconclusive: 7.57 µM [inhibitor, full curve].

Q: With `c1ccc(CSc2snnc2-c2ccccc2)cc1` as the molecule, how does the Potency read?
A: Its Potency is inconclusive: 30.1 µM [inhibitor, partial curve, poor fit].

Q: `O=C(NCCc1ccc(F)cc1)Nc1ccc2c(c1)OCO2` was tested. Which Potency did it give?
A: The Potency was inconclusive: 12 µM [inhibitor, partial curve].

Q: `COc1cc(SC)ccc1C(=O)Nc1ccccn1` was tested. Which Potency did it give?
A: The Potency was active: 0.478 µM.

Q: `COCCN(C(=S)Nc1ccc(C)cc1)C(C)c1ccco1` (configuration not stated) was tested. Which Potency did it give?
A: The Potency was active: 13.5 µM.

Q: How did the Potency turn out when `N/C(Cc1nc(-c2ccc(Br)cc2)cs1)=N\O` was run?
A: The Potency was inconclusive: 33.8 µM [inhibitor, single point].

Q: With `O=C(COc1ccc(C2SCCS2)cc1)NNC(=O)C(Cl)Cl` as the molecule, how does the Potency read?
A: The Potency was inconclusive: 23.9 µM [inhibitor, single point].

Q: `CSc1nc2c(ccc3ccccc32)o1` was tested. Which Potency did it give?
A: The Potency was inconclusive: 26.9 µM [inhibitor, single point].

Q: Which Potency does the source give for `O=C(CC1SC(=O)NC1=O)Nc1ccc(Cl)cc1` (configuration not stated) here?
A: The Potency was inconclusive: 30.1 µM [inhibitor, partial curve, poor fit].

Q: `Cc1cccc(N2NC(=O)/C(=C/c3ccc(-c4ccc(Cl)c(C(=O)O)c4)o3)C2=O)c1` was tested. Which Potency did it give?
A: The Potency was active: 23.9 µM.

Q: How did the Potency turn out when `O=C(N/N=C/c1oc(O)c2ccccc12)c1ccccc1` was run?
A: The Potency was inconclusive: 23.9 µM [inhibitor, single point].

Q: With `O=C(/C=C/c1ccccc1F)N1CCN(c2ccccn2)CC1` as the molecule, how does the Potency read?
A: The Potency was inconclusive: 21.3 µM [inhibitor, partial curve].

Q: `COc1cccc(C(=O)Nc2ccc3nc4n(c(=O)c3c2)CCCC4)c1` was tested. Which Potency did it give?
A: The Potency was active: 16.9 µM.

Q: With `O=C(Nc1ccc(N2CCOCC2)c(Cl)c1)c1cccc(-n2cnnc2)c1` as the molecule, how does the Potency read?
A: The Potency was inconclusive: 19 µM [inhibitor, single point].

Q: `CCC(=O)c1ccc(OCc2ccccc2)c(OC)c1` was tested. Which Potency did it give?
A: The Potency was inconclusive: 9.53 µM [inhibitor, single point].

Q: How did the Potency turn out when `COc1cc(C2Nc3ccc4ncccc4c3C3=C2C(=O)CCC3)ccc1O` (configuration not stated) was run?
A: The Potency was inconclusive: 23.9 µM [inhibitor, partial curve].

Q: For `O=C(CCCc1ccccc1)NCCc1ccccc1`, which Potency is on record?
A: Its Potency is inconclusive: 30.1 µM [inhibitor, partial curve, poor fit].

Q: Which “activity change, negative = inhibition” value does the source give for `Cc1nn(-c2ccc(F)cc2)c(N)c1C1(O)C(=O)Nc2ccccc21` (configuration not stated) here?
A: The value was inactive: -2.6%.

Q: How did the Potency turn out when `c1ccc2c(CNc3ccc(CNc4ncn[nH]4)cc3)cccc2c1` was run?
A: Its Potency is inconclusive: 21.3 µM [inhibitor, partial curve, poor fit].

Q: With `CCSc1nnc(C)c(=O)n1COC(=O)c1ccc(S(=O)(=O)N2CCCC2)cc1` as the molecule, how does the “activity change, negative = inhibition” value read?
A: The value was inactive: 0.0958%.

Q: How did the Potency turn out when `c1ccc(CN2CCC(=NNc3nc4ccccc4[nH]3)CC2)cc1` was run?
A: Its Potency is active: 19 µM.

Q: For `COc1cc(/C=C2\SC(N3CCCCC3)=NC2=O)cc(OC)c1OC`, which Potency is on record?
A: The Potency was inconclusive: 21.3 µM [inhibitor, partial curve, poor fit].

Q: Which Potency does the source give for `Clc1ccc(N/N=C/c2cccnc2)cc1` here?
A: Its Potency is active: 16.9 µM.

Q: `CC(=O)c1ccc(Sc2ccccc2)cc1` was tested. Which Potency did it give?
A: The Potency was inconclusive: 42.6 µM [inhibitor, partial curve, poor fit].

Q: For `CCOC(=O)Cc1csc(NC(=O)COc2ccc(OC)cc2)n1`, which Potency is on record?
A: Its Potency is active: 19 µM.

Q: Which Potency does the source give for `O=C(N/N=C/c1ccc(OC(=O)c2ccccc2)c([N+](=O)[O-])c1)c1ccc(O)cc1` here?
A: Its Potency is inconclusive: 21.3 µM [inhibitor, partial curve, poor fit].

Q: For `CCn1cc(/C=C/C(=O)Nc2ccn(Cc3c(F)c(F)cc(F)c3F)n2)cn1`, which Potency is on record?
A: The Potency was inconclusive: 26.9 µM [inhibitor, single point].

Q: `COc1ccc(OC)c(NC(=O)CCN2CC(C)CC(C)C2)c1` (configuration not stated) was tested. Which “activity change, negative = inhibition” value did it give?
A: The value was inactive: -7.69%.

Q: `O=C(NCC1CCCCC1)c1ccc(F)cc1Cl` was tested. Which Potency did it give?
A: Its Potency is inconclusive: 16.9 µM [inhibitor, partial curve].

Q: With `Cc1cc(C)c2nc(-c3ccncc3)cc(C(=O)N3CCN(Cc4ccccc4Cl)CC3)c2c1` as the molecule, how does the Potency read?
A: The Potency was active: 15.1 µM.

Q: With `CC(=O)N1CC(C)Sc2ccc(S(=O)(=O)NCCc3cccc(C)c3)cc21` (configuration not stated) as the molecule, how does the “activity change, negative = inhibition” value read?
A: Its value is inactive: 6.12%.

Q: With `COc1ccc(C(O)c2nc3ccccc3s2)cc1` (configuration not stated) as the molecule, how does the “activity change, negative = inhibition” value read?
A: The value was inactive: -0.871%.

Q: Which Potency does the source give for `NNc1nc(Nc2ccccc2)nc(Nc2ccccc2)n1` here?
A: The Potency was inconclusive: 23.9 µM [inhibitor, partial curve].

Q: How did the “activity change, negative = inhibition” value turn out when `COc1cc(C=O)ccc1Oc1cnccn1` was run?
A: Its value is inactive: 1.39%.

Q: For `COc1ccc(S(=O)(=O)N2CCN(c3ccccc3F)CC2)cc1-c1noc(C)n1`, which Potency is on record?
A: The Potency was inconclusive: 10.7 µM [inhibitor, partial curve, poor fit].

Q: With `CC(C)N1CCc2c(sc(NC(=O)c3ccc(C(=O)c4ccccc4)cc3)c2C(N)=O)C1` as the molecule, how does the Potency read?
A: The Potency was inconclusive: 23.9 µM [inhibitor, single point].

Q: Which “activity change, negative = inhibition” value does the source give for `Cc1cc(C=O)c(C)n1-c1sc2c(c1C(=O)O)CCCC2` here?
A: The value was inactive: 1.33%.

Q: How did the Potency turn out when `O=C1CN(c2nc(-c3cccnc3)nc3sc4c(c23)CCCC4)CCN1` was run?
A: Its Potency is inconclusive: 21.3 µM [inhibitor, single point].

Q: `O=C(Nc1ccc(CN2CCOCC2)cc1)c1ccc(Cl)cc1Cl` was tested. Which Potency did it give?
A: The Potency was inconclusive: 23.9 µM [inhibitor, partial curve, poor fit].

Q: Which “activity change, negative = inhibition” value does the source give for `CCN(CC)c1nn2c(=O)c(C(=O)NCCc3ccccc3)cnc2s1` here?
A: Its value is inactive: 3.21%.

Q: `Cc1ccc(C)c(NC(=O)c2ccc3c(O)c(S(=O)(=O)c4ccc(Cl)cc4)c(=O)[nH]c3c2)c1` was tested. Which Potency did it give?
A: The Potency was inconclusive: 13.5 µM [inhibitor, partial curve].

Q: How did the Potency turn out when `COc1ccc(-c2cn(CCC(=O)O)c(C)n2)cc1` was run?
A: Its Potency is inconclusive: 30.1 µM [inhibitor, partial curve, poor fit].

Q: `O=c1c(C(c2ccc(F)cc2)c2c(O)nc3n(c2=O)CCS3)c(O)nc2n1CCS2` was tested. Which “activity change, negative = inhibition” value did it give?
A: Its value is inactive: 1.01%.

Q: How did the Potency turn out when `Cc1cc(-c2nc3cccnc3s2)ccc1NS(=O)(=O)c1ccc2c(c1)OCCO2` was run?
A: The Potency was inconclusive: 30.1 µM [inhibitor, single point].

Q: How did the Potency turn out when `CC(=O)Nc1ccc(NC(=O)CSc2ncc(C(=O)Nc3ccc(Cl)cc3)c(=O)n2C)cc1` was run?
A: The Potency was inconclusive: 8.49 µM [inhibitor, partial curve, poor fit].

Q: With `CCN(CC)C(=O)C1CC(c2ccc(OC)cc2)=NO1` (configuration not stated) as the molecule, how does the Potency read?
A: Its Potency is inconclusive: 23.9 µM [inhibitor, single point].

Q: With `CC(C)(C)C(=O)CSc1ncnc2c1cnn2-c1ccccc1` as the molecule, how does the Potency read?
A: The Potency was active: 1.2 µM.

Q: Which Potency does the source give for `CCN(CC(=O)Nc1ccc2c(c1)OCCO2)C(=O)c1ccc(C(F)(F)F)cc1` here?
A: The Potency was inconclusive: 23.9 µM [inhibitor, partial curve].

Q: With `COc1ccc(-c2cc3c(=O)n(CC(=O)N4CCCCC4)ncn3n2)cc1` as the molecule, how does the Potency read?
A: The Potency was inconclusive: 2.13 µM [inhibitor, full curve].

Source: PubChem BioAssay AID588342 (National Center for Advancing Translational Sciences (NCATS), 2011)
